From publication PMC4336329 (PLoS ONE, 2015)
The campaign covered roughly 310,000 compounds. About 2,200 (0.71%) showed an effect of 50% or more. The effect is printed as a negative number. This is one part of the list.

target: human ether-à-go-go-related gene (hERG) potassium channel (human, UniProt Q12809); assay: primary screen, population patch clamp on CHO cells stably expressing hERG
Sequence (Q12809 whole entry, looked up): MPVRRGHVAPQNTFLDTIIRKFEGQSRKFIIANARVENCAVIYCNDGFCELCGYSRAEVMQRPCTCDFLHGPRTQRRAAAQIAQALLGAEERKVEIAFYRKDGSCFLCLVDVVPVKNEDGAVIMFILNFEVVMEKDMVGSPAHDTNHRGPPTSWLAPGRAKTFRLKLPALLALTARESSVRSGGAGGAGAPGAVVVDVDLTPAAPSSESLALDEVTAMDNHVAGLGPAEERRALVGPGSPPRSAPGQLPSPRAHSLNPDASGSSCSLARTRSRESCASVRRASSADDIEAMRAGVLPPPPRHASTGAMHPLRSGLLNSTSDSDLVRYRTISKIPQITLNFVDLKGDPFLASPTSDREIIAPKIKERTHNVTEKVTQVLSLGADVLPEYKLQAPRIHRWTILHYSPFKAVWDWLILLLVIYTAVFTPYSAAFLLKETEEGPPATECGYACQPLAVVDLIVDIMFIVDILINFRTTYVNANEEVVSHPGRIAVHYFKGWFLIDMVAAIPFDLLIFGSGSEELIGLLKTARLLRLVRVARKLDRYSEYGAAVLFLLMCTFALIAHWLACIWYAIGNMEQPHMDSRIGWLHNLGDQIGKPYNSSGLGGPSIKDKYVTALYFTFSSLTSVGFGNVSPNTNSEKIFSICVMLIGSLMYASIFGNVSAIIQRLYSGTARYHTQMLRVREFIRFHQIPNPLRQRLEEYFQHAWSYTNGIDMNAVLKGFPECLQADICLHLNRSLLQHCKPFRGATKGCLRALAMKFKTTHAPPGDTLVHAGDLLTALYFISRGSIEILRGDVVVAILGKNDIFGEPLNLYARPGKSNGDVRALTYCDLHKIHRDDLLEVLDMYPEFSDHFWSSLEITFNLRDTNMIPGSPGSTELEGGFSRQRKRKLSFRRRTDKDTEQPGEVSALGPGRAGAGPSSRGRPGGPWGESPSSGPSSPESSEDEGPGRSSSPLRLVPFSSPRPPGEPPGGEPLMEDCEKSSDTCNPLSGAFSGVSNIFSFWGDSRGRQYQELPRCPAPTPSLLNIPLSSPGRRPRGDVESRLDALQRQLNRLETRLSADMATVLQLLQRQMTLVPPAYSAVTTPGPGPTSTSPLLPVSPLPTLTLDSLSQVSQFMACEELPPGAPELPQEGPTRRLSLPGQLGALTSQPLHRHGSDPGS

SMILES | hERG current change (%, negative = inhibition) at 1uM [%]
O=C(NCCc1ccccc1)c1ccc(CS(=O)(=O)c2ccc(Cl)cc2)o1 | 5.28
O=C(CCC1COc2ccccc2O1)NCc1ccccc1 (centres unmarked) | 4.8
CC(C)(C)C(=O)N1CCN(c2ccc([N+](=O)[O-])c(NCc3cccnc3)c2)CC1 | -11.5
COc1ccc2[nH]c3c(c2c1)CCNC3(C)CCc1ccc(Cl)nc1 (centres unmarked) | 3.73
CCc1ccccc1NNC(=O)c1snnc1C | 1.7
COc1cc(C=O)ccc1OC(=O)N1CCOCC1 | 15.4
OC(Cn1nnc2ccccc21)Cn1c(C(F)(F)F)nc2ccccc21 (centres unmarked) | 13.5
Cc1ccc(S(=O)(=O)Nc2cc(C)cn(Cc3ccc(F)cc3)c2=O)cc1 | 4.87
O=C(NCc1ccco1)/C(=C/c1ccc(Cl)cc1)NC(=O)c1ccco1 | 4.25
O=C1CC(c2ccccc2)C(C(=O)O)N1 (centres unmarked) | 12.1
Nn1c(SCc2cccc(Br)c2)nnc1-c1ccncc1 | 7.48
O=C(NCc1ccccc1)/C(=C/c1ccc(OC(F)F)cc1)c1ccccc1 | 14
O=C(NNc1ccccc1[N+](=O)[O-])Nc1ccc(Cl)c(Cl)c1 | 14.2
Cc1cc(C(=O)N2CCc3c([nH]c4ccccc34)C2c2c(F)cccc2Cl)no1 (centres unmarked) | 8.86
C#CCOCOCC#CCN(CC)CC | 2.27
Cc1ccc(S(=O)(=O)N2CCOCC2)cc1C(=O)N1C(=O)c2cccc(N)c2C1=O | 13.6
COc1cccc(CCc2nnc(CCC(=O)N3CCN(Cc4ccccn4)CC3)o2)c1 | 10.2
CCSc1nnc(NC(=O)c2csc(C)c2)s1 | 3.99
COc1cc2c(C(=O)N(C)c3cc(Cl)ccc3OC)cn(C)c(=O)c2cc1OC | 11.8

SMILES | hERG current change (%, negative = inhibition) at 1uM [%]
CN1CCOC(c2ccccc2)c2ccccc2C1.Cl (centres unmarked) | 13.8
O=C1CCc2cc(S(=O)(=O)Nc3ccccc3Cl)ccc2N1 | 0.625
CCN(CC)C(=O)Oc1ccc(Br)cc1C(=O)Nc1ccc(F)cc1F | 11.4
Cc1c(O)ccc2c(CN(C)Cc3ccccc3)cc(=O)oc12 | 11.4
N#Cc1nc(-c2ccc(Cl)cc2)oc1NCc1ccco1 | 18.1
O=C1NC(=O)N(c2ccccc2F)C(=O)/C1=C/c1ccc(Sc2nc3ccccc3[nH]2)o1 | -0.511
C#CCOCCOCCOCCNc1nc(N2CCN(C(=O)Cn3cc(CC(C)O)nn3)CC2)nc(N2CCN(C(=O)[C@H]([C@@H](C)CC)n3cc(CCC[NH+]=C(N)N)nn3)CC2)n1.[Cl-] (some centres unmarked) | 9.93
O=[N+]([O-])c1ccc(-c2nc(=S)c3c(o2)CCCC3)cc1 | 3.32
CC(=O)c1cnc2cc(-c3ccccc3)nn2c1C | -10.2
Cc1oc(C(=O)Nc2ccc(C(=O)O)cc2)cc1COc1ccccc1 | 3.43
COC(=O)Nc1nn(-c2ccc(OC)cc2)c(=O)c(C#N)c1C | 12.3
CCOC(=O)c1c(C)[nH]c(C(=O)C(C)N2CCCC2)c1C (centres unmarked) | 2.73
O=C(Nc1ccc(Oc2ccccc2)nc1)C1CCCCN1Cc1ccc(O)cc1 (centres unmarked) | 11
CCCCOP(=O)(OCCCC)C1(NS(=O)(=O)c2ccccc2)C=CC(=O)c2ccccc21 (centres unmarked) | 10.2
Fc1ccccc1NC(=S)N1CCN(Cc2ccc3c(c2)OCO3)CC1 | 8.15
NS(=O)(=O)c1ccc(CCNC(=O)c2cccnc2)cc1 | 7.88
Cc1cc2c(NS(=O)(=O)c3ccc(F)cc3)cccc2nn1 | 12
COC(=O)c1ccccc1NC(=O)NCc1c(C)nn(C)c1C | 17
CCCOc1ccc(N2CC(C(=O)Nc3ccccc3F)CC2=O)cc1 (centres unmarked) | 4.54

SMILES | hERG current change (%, negative = inhibition) at 1uM [%]
O=C1CC(c2ccc(F)cc2)Sc2nc(C34CC5CC(CC(C5)C3)C4)nn21 (centres unmarked) | 20.3
O=C1SC(SCc2ccccc2)=N/C1=C\c1ccc(C(=O)O)cc1 | 17
O=C(Nc1nnc(Cc2ccc(Cl)cc2)s1)C1CCCO1 (centres unmarked) | 19.6
CCCCC(=O)N/N=C/c1c(O)n(-c2cccc3ccccc23)c(=O)[nH]c1=O | 6.92
N/C(=N\OC(=O)c1ccc(=O)n(Cc2ccc(Cl)cc2)c1)c1ccccn1 | 0.848
Nc1cc(=O)[nH]c(=S)n1-c1cccc(C(F)(F)F)c1 | 21.1
O=[N+]([O-])c1ccc(O)c(/C=N/NC(=S)Nc2ccc(Cl)cc2Cl)c1 | 26.8
CCN1CCn2c3c(c4cc(Br)ccc42)CCCC31.Cl (centres unmarked) | 5.59
O=C(Nc1cc(C(F)(F)F)ccc1N1CCOCC1)C1=NN(c2ccccc2)C(=O)CC1 | 1.58
Cc1ccc(C(=O)Nc2ccc3c(c2)OCO3)cc1S(=O)(=O)N1CCCCC1 | 12.9
O=C(CN1CCN(C(=O)c2ccccc2)CC1)Nc1ccc(Cl)cc1F | -54.8
Cc1nnc(SCc2ccc(Cl)cc2)nc1/C=C/N(C)C | -14.8
COC(=O)c1ccccc1NC(=O)C1CC(=O)N(c2ccccc2)C1 (centres unmarked) | -9.39
CCC(C(=O)OCC(=O)Nc1ccc(C(=O)Nc2ccc(OC)cc2)cc1)c1ccccc1 (centres unmarked) | 0.162
Cc1ccc(C(=O)NCCN2CCOCC2)cc1C | 15.2
COc1ccccc1N1CCN(S(=O)(=O)c2c[nH]c(=O)[nH]c2=O)CC1 | -8.73
Cc1csc(NC(=O)c2ccccc2)n1 | 4.74
O=C(/C=C/c1ccc([N+](=O)[O-])cc1)NCCc1ccccc1 | -8.23
